Laboratory results as given in PubChem BioAssay AID1347417 (National Center for Advancing Translational Sciences (NCATS), 2020).
In all, about 120,000 compounds went through this assay and about 5,300 (4.4%) were called active. This list was built around the results that the source calls inconclusive (neither active nor inactive); the mix of calls is not that of the screen. Calls come from the whole dose curve; as a rule, active = well fitted inhibition curve with a large enough effect; inconclusive = small, poorly fitted or top-dose-only effect; inactive = no such curve, though single readings can be large or run the other way. Potencies of inconclusive entries are doubtful fits and often do not repeat.

Experiment: qHTS Primary assay for Inhibitors of Plasmodium falciparum Dd2 growth in vitro; note: nearly all actives have a fitted effect of over 65% in size
Conditions: P. falciparum Dd2 growth, SYBR Green, 72 h; series mostly up to 28.9 µM
In short: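 Readout: SYBR Green fluorescence, 485 nm excitation, 535 nm emission, after ~16 h lysis at 37C. Before that, Dd2-infected red cells (2.5% hematocrit) grew 72 h with compound, 29 uM top final concentration.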
Potency is the fitted concentration of half-maximal effect; tags give direction and shape of the fitted curve.

SMILES | Potency
CC(=O)Nc1ccc(CN2CC[C@H](c3nnc(C(C)(C)C)o3)C2)cc1 | inconclusive: 31.6 µM [inhibitor, single point]
CCc1ccc(NC(=O)N2CCc3[nH]c4ccc(F)cc4c3C2)cc1 | inactive
O=C(NCCCc1ccccc1)c1ccc2c(c1)sc1nc(-c3ccc(F)cc3)cn12 | inconclusive: 14.1 µM [inhibitor, single point]
Cc1ccccc1CN1C(=O)c2ccccc2Sc2ccc(C(=O)NCCCN3CCOCC3)cc21 | inconclusive: 3.98 µM [inhibitor, single point]
CCOC(=O)c1cccc(NC(=O)NC2COc3ccccc3C2)c1 (stereo not drawn) | inconclusive: 17.8 µM [inhibitor, single point]
Cc1cccc(C)c1NC(=O)c1cc2sccc2n1Cc1ccc(F)cc1 | inconclusive: 8.91 µM [inhibitor, single point]
CCN(Cc1ccccc1)S(=O)(=O)c1ccc(F)c(C(=O)Nc2ccc(C(C)C)cc2)c1 | inconclusive: 17.8 µM [inhibitor, single point]
COc1ccc(C(=O)Nc2ccc3c(c2)CN(Cc2ccc(F)cc2)C(=O)C(C)O3)c(OC)c1 (stereo not drawn) | inactive
O=C(c1ccco1)N1CCC(C2CCN(Cc3cccc(F)c3F)CC2)C1 (stereo not drawn) | inactive
Cc1ccc(C(=O)N2CCc3nc4cc(-c5ccccc5)[nH]n4c(=O)c3C2)cn1 | inconclusive: 0.224 µM [inhibitor, full curve, poor fit]
CCN1CCC(CCNC(=O)C2CCCN(C(=O)c3ccccc3)CCC(=O)NCC2)CC1 (stereo not drawn) | inactive
Cc1ccc(NC(=O)NCc2c(-n3cccc3)sc3c2CCCC3)c(Cl)c1 | inconclusive: 17.8 µM [inhibitor, single point]
CC(C)(C)c1ccc(C(=O)Nc2ccc(Cl)cc2C(=O)c2ccccc2)cc1 | inconclusive: 15.8 µM [inhibitor, single point]
CCc1sc(NC(=O)C[C@H]2NC(=O)c3ccccc3NC2=O)nc1C(=O)OC | inconclusive: 14.1 µM [inhibitor, partial curve, poor fit]
O=C(N[C@@H]1CCNC[C@H]1O)c1cccc(-c2ccc(OC(F)(F)F)cc2)c1 | inconclusive: 20 µM [inhibitor, single point]
CC1=C(C(=O)Nc2ccccc2C)C(c2ccc[nH]2)n2ncnc2N1 (stereo not drawn) | inactive
CCN1C(=O)c2ccccc2S(=O)c2ccc(C(=O)N3CCN(c4cccc(Cl)c4)CC3)cc21 (stereo not drawn) | inconclusive: 2 µM [inhibitor, partial curve, poor fit]
C[C@]1(CO)[C@H]2Cc3sc(-c4ccsc4)nc3[C@@H](CC(=O)Nc3cccc(O)c3)[C@]2(C)CC[C@H]1O | inconclusive: 6.31 µM [inhibitor, partial curve, poor fit]
